Sequences and labels used below:
B1: C07-hFc (S239C) (Fc fusion)
chain: QVQLVESGGGLVQAGESLRLACAASGTIFSGNAVGWYRQAPEKQREWVSSITDYGDTDYAEAVKGRFTISRDNAKNTVYLQMNSLKPEDTAVYYCYVYQRGESEEYWGQGTQVTVSSGGGGSGGGGSGGGGS[human IgG1 Fc with changes not spelt out]
notes: Built from parts
B2: D10-hFc (S239C) (Fc fusion)
chain: QVQLVESGGGLVQPGGSLRLSCAASGSIFSVNTMGWYRQAPGKQRDLVAVATSGGTIHYADSVKGRFTISRDNAKNTVYLQMNSLKPEDTAVYYCNLVVPYGMIAGDHDYWGQGTKVTVSSGGGGSGGGGSGGGGS[human IgG1 Fc with changes not spelt out]
notes: [G4S]3 linker
B3: E06-hFc (S239C) (Fc fusion)
chain: QVHLVESGGGLVQAGGSLRLSCAASRRSFSEYAMGWFRQAPGKEREFVAAIGWSGVIEYADSVKGRFTISRDNAKDTVYLQMNSLKPEDTAVYYCAAGLGIRVVSQTPAYWGQGTQVTVSSGGGGSGGGGSGGGGS[human IgG1 Fc with changes not spelt out]
notes: [G4S]3 linker
B4: A06-hFc (S239C) (Fc fusion)
chain: QVHLVESGGGLVQAGGSLRLSCAASGRTFLSMGWFRQAPGKEREFVAAISWTGGSTGYADSVKGRFTISRESDKETMYLQMNSLKPEDTAVYYCAARGDVYYGGDDATRYKYWGQGTQVTVSSGGGGSGGGGSGGGGS[human IgG1 Fc with changes not spelt out]
notes: [G4S]3 linker; also called #340
B5: E10-hFc (S239C) (Fc fusion)
chain: QVQLVESGGGLVQAGGSLRLSCAVSGRALSDYNIGWFRQAPGKEREFVARKTWDGSSTRYDDSVKGRFTVSIEDAKNTAYLQMSSLKTEDTAVYYCAAGRYSRARGWEYDYWGQGTQVTVSSGGGGSGGGGSGGGGS[human IgG1 Fc with changes not spelt out]
notes: [G4S]3 linker; also called #435
B6: F05-hFc (S239C) (Fc fusion)
chain: QVQLVESGGGLVQAGGSLRLSCAASGRAFGDYNIGWFRQAPGKEREFVARRTWDGSSTRYDDSVKGRFTVSIDNAKNTAYLQMNSLKTEDTAVYYCAAGRYSRVRGWEYDYWGQGTQVTVSSGGGGSGGGGSGGGGS[human IgG1 Fc with changes not spelt out]
notes: [G4S]3 linker; also called #436
B7: B01-hFc (S239C) (Fc fusion)
chain: QVQLVESGGGLVQAGGSLRLSCEVTRSPMPIDTMAWYRQAPGRQRELVAIISRSGSTNYADSVKGRFTISRNDTKSTMYKSTMYLKMNTLELEDTGVYYCNAVGLWNGAEYWGQGTQVTVSSGGGGSGGGGSGGGGS[human IgG1 Fc with changes not spelt out]
notes: Built from parts; also called #341
B8: D04-hFc (S239C) (Fc fusion)
chain: QVQLVESGGGLVQPGGSLRLSCAASESTFSINVMGWYRQAPGKQRELVATITSGDITNYADSVKGRFTISRDNAENTVYLRTNSLKPEDTAVYYCNARGEYHSGNEYDYWGQGTQVTVSSGGGGSGGGGSGGGGS[human IgG1 Fc with changes not spelt out]
notes: Built from parts; also called #371

For one assay, the target named is T1, human ALPP on CHO cells (human, UniProt P05187 23-506).
T1 construct: whole, on cells; also called CHO-ALPP
The experiment in a line: flow cytometry, CHO cells, KDapp. On the procedure:
(§1) Cell surface binding of test agents to hALPP isoforms was characterized in four CHO-ALPP isoform transfectant cell lines (CHO-ALPP, CHO-ALPPL2, CHO-ALPI and CHO-ALPL) and the resulting KDapp values determined. Adherent cells were detached from tissue culture flasks by incubating with 0.1% EDTA/PBS solution at 37° C. for ~10 minutes or until cells detached easily. Cells were re-suspended in ice-cold PBS/2% FCS in 15 ml tubes and centrifuged at 1700 rpm for 5 mins at 4° C. Supernatant was removed and the cell pellet re-suspended in PBS/2% FCS. […] Cells were incubated with 100 μl of test agents at a range of concentrations, plus controls for 1 hr on ice. The sample plate was centrifuged at 1700 rpm for 5 mins at 4° C. The supernatant was removed, and a wash performed by re-suspending the cell pellets in 0.25 mL of ice-cold PBS/2% FCS using a multichannel pipette. Samples were again centrifuged at 1700 rpm for 5 min at 4° C. Supernatant was removed and two further washes performed as described. After the final wash and centrifugation step, excess liquid was removed by blotting the plate on tissue paper. Binding of VHH-hFc agents was determined by adding 100 μl of Fitc-anti-human Ab (ThermoFisher) and incubating for 30 mins on ice in the dark. Wash steps were performed as described previously. All cell pellets were finally re-suspended in 0.28 ml of ice-cold PBS/2% FCS and left on ice in the dark prior to analysis on a Merck-Millipore Guava EasyCyte HT or Thermo Fisher Attune N×T flow cytometer.
In general terms: Flow cytometry measures light scatter and fluorescence of single cells or particles in a stream.
Take B1: the Kd is 1.7 nM.
Same read-out and setting: the same measure for B2: 3.6 nM; for B3: 6 nM; for B4: 5.4 nM.
Still for that read-out and setting: the same measure for B5: 3.7 nM.
B6: the Kd was determined as 3.3 nM.
B7 returned a Kd of 2.9 nM.

For the next assay, the target named is T2, human ALPPL2 on CHO cells (human, UniProt P10696 20-503).
T2 construct: whole, on cells; also called CHO-ALPPL2
Briefly: flow cytometry, CHO cells, KDapp. On the procedure:
as §1
Turning to B1, the Kd stood at 1.8 nM.
Same read-out and setting: the same measure for B2: 8 nM; for B3: 3.7 nM.
For B4, the Kd came out at 3.9 nM.
Still for that read-out and setting: the same measure for B5: 3 nM; for B6: 2.9 nM; for B7: 9.3 nM.

For another assay, the target named is T3, Human ALPL (leucine zipper) (human).
T3 construct: Whole entry: fused with a cysteine stabilised leucine zipper and His tag; also called hALPL
T3 chain: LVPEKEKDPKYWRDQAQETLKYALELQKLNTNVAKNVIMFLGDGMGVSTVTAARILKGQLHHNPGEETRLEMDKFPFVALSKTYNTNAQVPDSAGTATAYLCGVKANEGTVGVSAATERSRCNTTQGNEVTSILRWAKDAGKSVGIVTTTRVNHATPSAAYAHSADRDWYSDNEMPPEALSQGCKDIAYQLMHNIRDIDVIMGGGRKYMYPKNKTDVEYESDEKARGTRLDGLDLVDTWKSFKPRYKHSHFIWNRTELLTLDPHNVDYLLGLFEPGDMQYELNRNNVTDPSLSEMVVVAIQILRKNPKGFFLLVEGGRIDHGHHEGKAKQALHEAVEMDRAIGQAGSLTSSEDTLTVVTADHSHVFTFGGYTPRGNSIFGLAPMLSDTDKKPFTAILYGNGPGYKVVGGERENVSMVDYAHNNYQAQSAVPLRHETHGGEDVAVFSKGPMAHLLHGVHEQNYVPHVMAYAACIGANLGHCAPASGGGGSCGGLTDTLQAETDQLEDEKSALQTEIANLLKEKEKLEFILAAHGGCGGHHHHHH
The experiment in a line: BLI, antigen immobilised. On the procedure: (§2) Binding kinetics were determined using the Biolayer Interferometry (BLI) Octet K2 or R4 system (Sartorius). […] For KD apparent measurements, the ALPP proteins were immobilised in sodium acetate pH5 buffer to AR2G sensors using amine coupling. To measure 1:1 interactions, AHC biosensors were used to immobilise Fc-fused proteins. All assays were conducted in HBS-EP with a plate temperature of 25° C. Ka (M⁻¹s⁻¹), Kd (s⁻¹) and KD (nM) values were determined using Octet Data Analysis High Throughput software (Sartorius) for Biolayer Interferometry.
On to B1, for which the binding result is recorded as “no binding”.
Same read-out and setting: the same measure for B2: “no binding”; for B3: “no binding”; for B4: “no binding”.
Same read-out and setting: for B8 the value was “no binding”; for B5, “no binding”.
As for B6, the binding result is listed as “no binding”.
As for B7, the binding result is given as “no binding”.

For another assay, the target named is T4, ALPI His homodimer (human, UniProt P09923 20-503).
T4 construct: Whole entry with His tag; used in ELISA and BLI; also called hALPI
T4 sequence: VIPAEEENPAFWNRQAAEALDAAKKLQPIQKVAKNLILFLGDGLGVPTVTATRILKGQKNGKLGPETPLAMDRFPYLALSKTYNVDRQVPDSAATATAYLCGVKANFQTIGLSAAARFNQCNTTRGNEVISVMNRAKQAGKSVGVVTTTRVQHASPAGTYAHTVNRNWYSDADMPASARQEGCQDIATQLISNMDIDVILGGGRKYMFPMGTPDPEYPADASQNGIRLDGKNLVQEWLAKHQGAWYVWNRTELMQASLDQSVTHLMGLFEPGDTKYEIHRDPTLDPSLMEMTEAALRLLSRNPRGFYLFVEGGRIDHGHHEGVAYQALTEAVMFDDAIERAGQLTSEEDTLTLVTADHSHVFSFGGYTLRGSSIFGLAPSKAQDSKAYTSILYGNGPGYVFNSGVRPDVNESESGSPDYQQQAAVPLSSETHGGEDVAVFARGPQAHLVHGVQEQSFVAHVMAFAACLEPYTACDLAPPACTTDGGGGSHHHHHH
The experiment in a line: BLI, antigen immobilised. The procedure:
as §2
For the molecule B1, the binding result was “no binding”.
Still for that read-out and setting: for B2 the value was “no binding”; for B3, “no binding”.
On the same count and under the same terms, for B4 the value was “no binding”; for B8, “no binding”; for B5, “no binding”.
On the same count and under the same terms, the same measure for B6: “no binding”.

In a further assay the target is T5, human ALPL on CHO cells (human, UniProt P05186 18-501).
T5 construct: whole, on cells; also called CHO-ALPL
T5 sequence (looked up): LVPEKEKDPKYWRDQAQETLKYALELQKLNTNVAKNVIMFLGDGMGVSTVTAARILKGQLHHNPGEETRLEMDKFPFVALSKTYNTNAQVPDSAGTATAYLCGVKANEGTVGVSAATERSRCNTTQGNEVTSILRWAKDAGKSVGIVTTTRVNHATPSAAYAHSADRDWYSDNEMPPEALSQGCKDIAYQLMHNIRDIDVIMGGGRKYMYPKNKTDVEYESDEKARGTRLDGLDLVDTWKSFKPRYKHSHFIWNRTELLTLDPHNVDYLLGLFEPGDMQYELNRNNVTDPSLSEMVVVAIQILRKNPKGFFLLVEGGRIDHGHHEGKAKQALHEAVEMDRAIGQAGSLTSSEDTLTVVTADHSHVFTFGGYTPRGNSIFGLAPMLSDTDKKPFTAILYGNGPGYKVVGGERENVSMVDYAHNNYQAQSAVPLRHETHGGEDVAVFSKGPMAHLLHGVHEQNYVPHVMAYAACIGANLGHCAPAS
The experiment in a line: flow cytometry, CHO cells stably expressing human ALPL; VHH-hFc detected with FITC anti-human Ab. On the procedure:
VHH-hFc proteins were assessed for human ALPP, ALPPL2, ALPI and ALPL cell-surface binding by flow cytometry. Binders were screened on CHO cells stably expressing human ALPP, ALPPL2, ALPI or ALPL.
as §1
For B1, the binding result is recorded as “no binding (tested: 350 nM)”.
Same read-out and setting: for B2 the value was “no binding (tested: 350 nM)”; for B3, “no binding (tested: 350 nM)”.
On to B4, for which the binding result was “no binding (tested: 350 nM)”.
Still for that read-out and setting: for B5 the value was “no binding (tested: 350 nM)”; for B6, “no binding (tested: 350 nM)”.
Regarding B7, the binding result is listed as “no binding (tested: 350 nM)”.

The record behind these values is patent US20260216242A1 (ALMAC DISCOVERY, published 2026).
